Assay results published in the RNAGym collection of RNA variant scans (doi:10.1073/pnas.2313332121).
Variants at the background level are over-represented here.

B1: TPR 5TU (parent)
chain: GGAUCUUCUCGAUCUAACAAAAAAGACAAAUCUGCCACAAAGCUUGAGAGCAUCUUCGGAUGCAGAGGCGGCAGCCUUCGGUGGCGCGAUAGCGCCAACGUUCUCAACUAUGACACGCAAAACGCGUGCUCCGUUGAAUGGAGUUUAUCAUG

Variants of: B1
Experiment: polymerase ribozyme fitness, log enrichment relative to wild type (log ratio); higher = more active; in vitro selection for triplet polymerase activity
Summary of the method: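 Fitness measures genotype enrichment against wild-type enrichment on a logarithmic scale, with inverse-variance-weighted averaging of replicates. The logarithm is base 2, and genotypes were kept only with ≥10 input reads and ≥1 read per output in Illumina sequencing. The sequenced libraries came from one triplicate in vitro selection round, including frozen incubation at −7 °C, of PCR-built, transcribed mutant libraries of each subunit of a heterodimeric triplet polymerase ribozyme.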

Variant | polymerase ribozyme fitness (log ratio)
A20U G25U G58A U135A G136U | ≤ -4.2
A21U C35G C63A G84U C116A A122G G143C U146A | ≤ -4.2
A23U A30G G50C C75G C93A U104G U146A | ≤ -4.2
A20U G42A G86C G126U A150C | ≤ -4.2
A23C A66G G67A U135G U139C A142C | ≤ -4.2
A20U G50C | ≤ -4.2
A21C C43U G70A G94A C95A | ≤ -4.2
A21U C75G G88C U135C G140U | ≤ -4.2
A22G C69A G86A C87A C103U A106U G128A U130G C131A A138U | ≤ -4.2
A23U A26G A41G G50U U53A C96A | ≤ -4.2
A21G C27U C57U A73U A98U U109C | ≤ -4.2
A23U C38U G48C A89U C103G C108A | ≤ -4.2
A20U G48A U82A C95A A115U U135G | ≤ -4.2
A23C C43U U61A G88C | ≤ -4.2
A23C G25U G50A U55G G124U | ≤ -4.2
A22G G25U A47C A52U U55G C75U U77C C95U C125U U144G | ≤ -4.2
A23U A73U U77G C95U G136U G140A | ≤ -4.2
A21C C85U A91C A98C | ≤ -4.2
A23G U31C G65C C85U G94A A115C U146A | ≤ -4.2
A22C A30G G50C A64C C85U C118G G140C U144C | ≤ -4.2
A21C U55G G128A | ≤ -4.2
A21U C54U C72G A91G G94A G128U G152A | ≤ -4.2
A23U A60G U61G C87G C131G | ≤ -4.2
A21C C38A A49U G83C C132A | ≤ -4.2

Variant | polymerase ribozyme fitness (log ratio)
A23G G59A A60G U77A G81A A91C | ≤ -4.2
A22U C32A C57A G58C C93U G133C U151G | ≤ -4.2
A21U G88U C105U | ≤ -4.2
A22U G34C C35U U55G G58C A73G G126A G141C A150U | ≤ -4.2
A20U C36U C54G G81C G92A C99U C149A | ≤ -4.2
A23G A37G C96U A98G U144A | ≤ -4.2
A22C A60U U61G G74C C85G U127C A150C | ≤ -4.2
A22C A29U U56G A66U U77C C114A U134C | ≤ -4.2
A22U U61G A64C G84C U145G | ≤ -4.2
A21G G62A G86C C116G U135C | ≤ -4.2
A23C G50U C87G U104G A110C G141U | ≤ -4.2
A21C C57U A91U | ≤ -4.2
A22G G34C G80C U82A C118U A147U | ≤ -4.2
A23U A24G U55G U61G A97C C99A C103A | ≤ -4.2
A20U C36U G92A | ≤ -4.2
A20U A26U G42U A49G A107U G141C | ≤ -4.2
A21U A49G C69A G80C G83A U146A | ≤ -4.2
A23C C57U C95G G126U G141C | ≤ -4.2
A23U C36U A47U G83A | ≤ -4.2
A21C C103A G117U A121C U148A C149G | ≤ -4.2
A20U C43U A49C A52U A66C A91U A113C | ≤ -4.2
A20U A89U C132A G140A | ≤ -4.2
A21G A52G U77G C108U A115G U127G | ≤ -4.2
A22C G50C C54A G62A G100A C105G A119C G140U | ≤ -4.2

Variant | polymerase ribozyme fitness (log ratio)
A20U A30U C35A G68U | ≤ -4.2
A22C G25C A30U C96G A137G A147U | ≤ -4.2
A23G C79A C87A G117C G140A | ≤ -4.2
A23U C35U A40C C75A U139G | ≤ -4.2
A22C G58C G83A C118U G126C G140A G141A | ≤ -4.2
A22U G50U G86U A115C U151C G152C | ≤ -4.2
A22C A24U U33G C85G C105G C108A U144C | ≤ -4.2
A21G C27A C51U C54U G58A | ≤ -4.2
A21U G83U G92U C116A C129G | ≤ -4.2
A22U C69G G94A C103G U104G U139A | ≤ -4.2
A23U C27G C57A C85U U90G U101G C118G G141U | ≤ -4.2
A22U C36G G65C A66C C79G G133A | ≤ -4.2
A21U C32U U77C G141C | ≤ -4.2
A22G G86U C87G U111C A113U A119U A122U G136A | ≤ -4.2
A20U C57G G70A U101G U144C | ≤ -4.2
A21G U31A G58C C87G C95U A115G A138U | ≤ -4.2
A21G A49U C76U U82A C116G | ≤ -4.2
A20U C75U A115G U135G G140C | ≤ -4.2
A21G A29U A30C U55A G59U U101C G124U G141A | ≤ -4.2
A23G G74C C96A C99U C118A G126C G133U A137G | ≤ -4.2
A21C U44G C57A C93A C118G G124U | ≤ -4.2
A22C A28U U55A C99U U151C | ≤ -4.2
A23U A29C U127A C129A A150U | ≤ -4.2
A22C C79G A110C | ≤ -4.2

Variant | polymerase ribozyme fitness (log ratio)
A22G G58C G68C A91C U102G A137C | ≤ -4.2
A21U A52G C72A G83U | ≤ -4.2
A22U A40C G58U C96G G133U | ≤ -4.2
A20U U56A A64U G83C U145G | ≤ -4.2
A22C A28U G42C G74U C96A C129A A137C G141A | ≤ -4.2
A23C G84U C93G A98U A122G U144G | ≤ -4.2
A20U C36G G59C G83A A98U A107C | ≤ -4.2
A23C U33G G67C G112C U144C | ≤ -4.2
A21C G25C A47C C87A | ≤ -4.2
A22C C54U U56A A66U C85A G152C | ≤ -4.2
A23U A47U G58A G70A A89G A98G | ≤ -4.2
A22C C69U C87A U90A G117U | ≤ -4.2
A20U A29U G46A G58U C76A G92C C103G G143U | ≤ -4.2
A21U A26G A52C C54U G67C C93A | ≤ -4.2
A22C A26C A30G G88U | ≤ -4.2
A23C C79G C85U G94C C95U U104A U130G U145C | ≤ -4.2
A23C U78A A91U A138C | ≤ -4.2
A22G G80A G88U | ≤ -4.2
A20U A91U C96G U127C | ≤ -4.2
A20U C27G U61A G88C G126C | ≤ -4.2
A23U C51U C87G C125A U144A | ≤ -4.2
A20U A60G C85U U135G | ≤ -4.2
A21U U56A G88A C99G G128C | ≤ -4.2
A23C A73C C96U G141U | ≤ -4.2

Variant | polymerase ribozyme fitness (log ratio)
A21U A60C C76U C85U U102G C118U U139G | ≤ -4.2
A23U C35A G42C C99U G152A | ≤ -4.2
A21C U61A C75U C93U G140A | ≤ -4.2
A23C C63U G74A C85U G100C A107U U148G | ≤ -4.2
A22G A47C C85A A106G A137C U146G | ≤ -4.2
A20U C43G C54G G67A U77C | ≤ -4.2
A22U A24C G42A A49C C76A G83U | ≤ -4.2
A21U A91C C116G C129G | ≤ -4.2
A21U A30G A41U C43U U44G C75G C87A A138G A150G | ≤ -4.2
A21U U31G A52G C85U U127G G128U U130A U148A | ≤ -4.2
A20U A29U G58C U77A U82A A89C C99A C118A | ≤ -4.2
A23G U45G G84A U111A | ≤ -4.2
A21U A22C G42C C85G U102G A142U | ≤ -4.2
A22C U45A G50C G86A G100A C118U | ≤ -4.2
A21U A29C C35A A40C G67C A142U | ≤ -4.2
A20U G25C A28C C35A G48U C95U A98C G117C | ≤ -4.2
A22U U33G G34U G81C A120G U134C | ≤ -4.2
A21G C27U A37U G65U A97U | ≤ -4.2
A21U G59C A98U G100A G136A | ≤ -4.2
A21U G50C C87G U101G C116G A138U | ≤ -4.2
A21G G58A A73G G84A C129A G141A | ≤ -4.2
A23C A28U A30G G58A C85A U144A | ≤ -4.2
A23G A26U C79G U104G G152A | ≤ -4.2
A22C A28U G46A G81C C95U C131U A137G | ≤ -4.2

Variant | polymerase ribozyme fitness (log ratio)
A22C A23U U109C | ≤ -4.2
A22C U33A A60U C149G | ≤ -4.2
A22C A24C | ≤ -4.2
A22C G25U A40C C75G C79G | ≤ -4.2
A20U G58A A91C | ≤ -4.2
A21U C57A U82C G100U C103G C118G | ≤ -4.2
A20U G81C A91U C96A | ≤ -4.2
A23G U33G U56C G80C | ≤ -4.2
A20U A73U C93G A121G A142G | ≤ -4.2
A23G G58C C75U C76U U78A U111A | ≤ -4.2
A23G G126U A142C | ≤ -4.2
A23G U55G G59A C79A C87G C99G | ≤ -4.2
A22G G81C G88A A91G C103A A110G C125G | ≤ -4.2
A22C A40G C57A C76U C99U C105U C131A G133C | ≤ -4.2
A21U G46A G84C C132U | ≤ -4.2
A21G C36A C75A G86C A115G | ≤ -4.2
A23G A52G C75A G88A G141A | ≤ -4.2
A21U C32A C35G G50U C96A C116U C118U A142G | ≤ -4.2
A23C C87G U145A | ≤ -4.2
A22U A30U A39U G59C G83A | ≤ -4.2
A21U A24U C38G U56A A64U C103G U134C | ≤ -4.2
A20U G58A C87A A106C | ≤ -4.2
A20U G92A C108U G140A | ≤ -4.2
A22G A41C U56A A66U A115G | ≤ -4.2

Variant | polymerase ribozyme fitness (log ratio)
A21U C79U G84A C93A C105U | ≤ -4.2
A23C U148C | ≤ -4.2
A22G A28U A91C G141A | ≤ -4.2
A21U C43U U55A G58A U111A A122C | ≤ -4.2
A22U A40U G70U C93U G100U | ≤ -4.2
A21U C43U G48C A52C C96U U135A G141U | ≤ -4.2
A20U A52U C79U C99G U145A U146A | ≤ -4.2
A23G A26C U45G A91U U144C A147C | ≤ -4.2
A22C A23U A73G U90A C99U | ≤ -4.2
A20U U61A G92A U144C | ≤ -4.2
A21U C85U G94A A121C A138U | ≤ -4.2
A20U U53G | ≤ -4.2
A22C U33G G67A C95G C129G | ≤ -4.2
A22U U31A C57A A60G C103G U111G A122U U151A | ≤ -4.2
A21G A30G G68A A110C U135C | ≤ -4.2
A22C U61A A91G U148C | ≤ -4.2
A23C A47G C69U | ≤ -4.2
A22G A30G C75U G80U C93A C103G | ≤ -4.2
A21G C75U C76U C85A C93A | ≤ -4.2
A21C A22U C38U A60U G83C U109G A137C | ≤ -4.2
A22U U45G G48U C85U A142U | ≤ -4.2
A21C C32G C76A A137G G143A C149U | ≤ -4.2
A22U U44C C75U C85G A97C | ≤ -4.2
